According to patent US8916527B2, “Antibiotic macrocycle compounds and methods of manufacture and use thereof” (Optimer Pharmaceuticals, Inc., priority 2007, dated 2014):

Conditions: human, in vivo
Experimental: In the phase 2A study of OPT-80 in CDAD patients who were administered OPT-80 at 200 mg bid (the intended dosing regimen), fecal levels of the parent OPT-80 were 1433±975 μg/g, while fecal levels of the metabolite Formula II were 760±373 μg/g (6). Thus, after oral administration, both parent and metabolite are present at levels far in excess of their MIC values versus C. difficile (FIG. 1).

CCc1c(Cl)c(O)c(Cl)c(O)c1C(=O)O[C@H]1[C@H](O)[C@H](OC)[C@H](OC/C2=C\C=C\C[C@H](O)/C(C)=C/[C@H](CC)[C@@H](O[C@@H]3OC(C)(C)[C@@H](O)[C@H](O)[C@@H]3O)/C(C)=C/C(C)=C/C[C@@H]([C@@H](C)O)OC2=O)O[C@@H]1C [Formula II]
fecal levels: 760 ± 373 µg/g
